Experimental data taken from PubChem BioAssay AID624417 (National Center for Advancing Translational Sciences (NCATS), 2012).
Screen size: about 410,000 compounds; about 6,400 (1.6%) were called active. Inconclusive results, whose numbers are uncertain, are shown with a selection of clear calls. Calls follow the shape of the dose curve; as a rule, active = well fitted inhibition curve with a large enough effect; inconclusive = small, poorly fitted or top-dose-only effect; inactive = no such curve, though single readings can be large or run the other way. No potency is given beside an inconclusive call; the fits are too rough.

These compounds were tested against Glucagon-like peptide 1 receptor (Homo sapiens) (UniProt P43220) (assay: qHTS of GLP-1 Receptor Inverse Agonists (Inhibition Mode)). Conditions: HEK293 GLP-1R CRE-luciferase, luminescence, 24 h, GLP-1R form is constitutively active; activity change, negative = inhibition: at 38.3 µM (top of the series) unless noted.
Summary of the method: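 Luminescence readout: a drop in cAMP-driven luciferase signal flags inverse agonism at a constitutively active GLP-1R stably expressed in HEK293. Compound exposure lasted 24 hr at 37 deg C, 5% CO2.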
% is scaled to controls: 0 for no effect and ±100 for the full control effect; potency is read from the fitted curve at half-maximal effect; tags tell the direction and shape of the fitted curve.
Also: nearly all actives have a fitted effect of over 55% in size.

Sequence of UniProt P43220 (P43220 whole entry, looked up): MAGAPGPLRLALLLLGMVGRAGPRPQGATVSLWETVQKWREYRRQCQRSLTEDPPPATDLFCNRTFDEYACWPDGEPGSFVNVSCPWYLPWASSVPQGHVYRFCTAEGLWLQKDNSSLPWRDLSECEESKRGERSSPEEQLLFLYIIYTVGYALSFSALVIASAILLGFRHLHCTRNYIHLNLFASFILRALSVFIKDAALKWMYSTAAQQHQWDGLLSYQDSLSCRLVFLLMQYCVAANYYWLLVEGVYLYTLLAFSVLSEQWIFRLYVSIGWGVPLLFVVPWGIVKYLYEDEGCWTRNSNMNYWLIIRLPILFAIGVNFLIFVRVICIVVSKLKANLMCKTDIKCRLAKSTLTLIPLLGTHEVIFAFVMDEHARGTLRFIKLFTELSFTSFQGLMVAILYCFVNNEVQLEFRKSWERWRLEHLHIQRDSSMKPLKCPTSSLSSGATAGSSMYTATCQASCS

SMILES | Potency | activity change, negative = inhibition
O=C(NCc1nc2ccccc2[nH]1)C1=C[C@@H](c2csc3ccccc23)C[C@@H](OCc2ccc(CO)cc2)O1 | inconclusive [inhibitor, single point] | 
CC1CCN(C(=O)Cn2cc(SCc3ccccc3)c3ccccc32)CC1 | inconclusive [inhibitor, partial curve, poor fit] | 
COc1cccc(-c2cnc3c(NC(C)=O)cc(-c4cccc(C(=O)NCCN(C)C)c4)cn23)c1 | inconclusive [inhibitor, single point] | 
CN1C(CCl)Nc2cc(Cl)c(S(N)(=O)=O)cc2S1(=O)=O (configuration not stated) |  | inactive: 28.5%
CNC(=S)Nc1ccc(Cc2ccncc2)cc1 |  | inactive: 15.4%
Cc1ccc(-c2ccccc2C2=CC(=O)CC(C)(C)C2=O)cc1 | inconclusive [inhibitor, single point] | 
Cc1ccc(CNC(=O)c2ccc(S(=O)(=O)Nc3c(C)n(C)n(-c4ccccc4)c3=O)cc2)cc1 |  | inactive: -18.1%
O=C(CCNC(=O)c1ccccc1Cl)Nc1ccc(Br)c(C(F)(F)F)c1 | inconclusive [inhibitor, single point] | 
CC1CCN(c2nc3ccc(C(=O)NCCCN4CCCCC4C)cc3s2)CC1 (configuration not stated) | inconclusive [inhibitor, full curve, poor fit] | 
CCCCOc1ccc(S(=O)(=O)NC(=O)C2(C)CCN2C(=O)c2c(C)noc2C)cc1 (configuration not stated) |  | inactive: 3.31%
O=C(CSc1nccn1-c1cccc(Cl)c1)Nc1cccc(C(F)(F)F)c1 | inconclusive [inhibitor, single point] | 
O=C(NC(=O)N1CCN(c2cccc(Cl)c2)CC1)c1ccc(Cl)cc1 | active: 3.16 µM | 
OC(c1ccccc1)(c1ccccc1)c1nccc2ccccc12 | inconclusive [inhibitor, single point] | 
Cc1ccc(-n2c(SCC(=O)NCC3CCCO3)nnc2-c2ccoc2C)cc1 (configuration not stated) |  | inactive: -29.1%
COc1ccc(/C=N\NS(=O)(=O)c2ccc(C)cc2)cc1COc1ccccc1[N+](=O)[O-] | inconclusive [inhibitor, partial curve, poor fit] | 
O=C(/C=C/c1ccccc1)N1CCN(CC(O)COc2ccccc2)CC1 (configuration not stated) | inconclusive [inhibitor, single point] | 
CC[C@H](C)[C@H]1CNC(=S)N1CC1CCN(CCCCc2ccccc2)CC1 |  | inactive: -18.4%
CC(=O)Nc1ccc(S(=O)(=O)NN=Cc2ccc(Cl)c(Cl)c2)cc1 | inconclusive [inhibitor, partial curve, poor fit] | 
O=C1CN(c2nc(-c3cccs3)nc3sc4c(c23)CCCC4)CCN1 | inconclusive [inhibitor, single point] | 
CCn1c(SCc2ccc(C#N)cc2)nnc1-c1cccc(Cl)c1 | inconclusive [inhibitor, partial curve, poor fit] | 
COc1ccc(-n2nnnc2C(c2ccccc2)N2CCN(C/C=C/c3ccccc3)CC2)cc1 (configuration not stated) | inconclusive [inhibitor, single point] | 

SMILES | Potency | activity change, negative = inhibition
CCOc1ccccc1CNC(=O)c1ccc(NC(=O)C2=C(C)OCCS2)cc1 | inconclusive [inhibitor, single point] | 
CCC(C)NC(=O)Cc1c(C)c2cc3c(cc2oc1=O)OC(C)(C)CC3 (configuration not stated) | inconclusive [inhibitor, single point] | 
CSc1ccc(CCNC(=O)c2cc(-c3ccccc3)c(N3CCOCC3)s2)cc1 | inconclusive [inhibitor, full curve] | 
Cc1ccc(C(=O)c2c(C)oc3c2C(=O)C(=O)c2ccccc2-3)cc1 | inconclusive [inhibitor, full curve, poor fit] | 
CC1CCN(S(=O)(=O)c2cn(CC(=O)Nc3ccc(F)c(Cl)c3)c(=O)c3ccccc23)CC1 | inconclusive [inhibitor, partial curve, poor fit] | 
Cc1cccc(-n2cc(-c3ccccc3)c3c(NC(C)C)ncnc32)c1 | inconclusive [inhibitor, partial curve, poor fit] | 
CCC1=Nc2cc(C(=O)NC(C)c3ccccc3)ccc2Sc2ccc(Cl)cc21 (configuration not stated) | inconclusive [inhibitor, single point] | 
COc1ccc2c(c1)CCc1sc(NC(=O)c3ccc(Cl)cc3)nc1-2 | inconclusive [inhibitor, single point] | 
Cc1cc(C2=NNC(=NC3CC3)SC2)c(C)n1Cc1ccco1 | inconclusive [inhibitor, full curve, poor fit] | 
COCCCNC(=O)CN1C(=O)COc2ccc(S(=O)(=O)N3CCCCCC3)cc21 | inconclusive [inhibitor, partial curve, poor fit] | 
CN1CCN(CC(O)COCCOc2ccc(Br)cc2)CC1 (configuration not stated) | inconclusive [inhibitor, partial curve, poor fit] | 
CN(CCOc1ccccc1)CC(=O)Nc1ccc(Cl)c(S(=O)(=O)N(C)C)c1 | inconclusive [inhibitor, partial curve, poor fit] | 
COCCNC(=O)c1c(N)n(-c2ccccc2)c2nc3ccccc3nc12 |  | inactive: -4.11%
COc1ccc(C(=O)CSc2nnc(C3CCCCC3)n2N)c(OC)c1 |  | inactive: 4.88%
O=C1OC(c2ccccc2)(N(Nc2ccccc2)c2ccccc2)c2ccccc21 (configuration not stated) | inconclusive [inhibitor, partial curve, poor fit] | 
S=c1nc[nH]c2c1cnn2-c1ccccc1 |  | inactive: 11.2%
CCOC(=O)CSC1=C(C#N)C(c2ccco2)C(C(=O)Nc2cccc(C(F)(F)F)c2)=C(C)N1 (configuration not stated) | inconclusive [inhibitor, single point] | 
CCN(CC)CCN1C(=O)C(=O)/C(=C(/O)c2c(C)[nH]c(C(=O)OC)c2C)C1c1ccccc1OC (configuration not stated) | inconclusive [inhibitor, full curve, poor fit] | 
NNC(=S)NC1CCS(=O)(=O)C1 (configuration not stated) | inconclusive [inhibitor, single point] | 
COc1ccccc1NC(=O)CN1CCN(c2ccc(F)cc2)CC1 | inconclusive [inhibitor, partial curve, poor fit] | 
CCOC(=O)C1=C(C)N(C[C@@H]2CC[C@@H](Cc3ccc(-c4ccccc4)cc3)O2)C(=O)NC1C1CC1 (some centres not stated) | inconclusive [inhibitor, partial curve] | 

SMILES | Potency | activity change, negative = inhibition
Cc1ccc(NC(=S)N2CCN(Cc3ccc4c(c3)OCO4)CC2)c(C)c1 | inconclusive [inhibitor, partial curve, poor fit] | 
CCOc1ccc(CCNC(=O)COC(=O)c2ccc(OC(C)C)cc2)cc1OCC | inconclusive [inhibitor, partial curve, poor fit] | 
CCc1ccc(OCC(=O)N(Cc2ccc(C)cc2)Cc2ccco2)cc1 | inconclusive [inhibitor, single point] | 
CCN1CCN(C(=O)c2ccccc2N(Cc2ccccc2)S(=O)(=O)c2ccc(OC)cc2)CC1 | inconclusive [inhibitor, single point] | 
COc1ccc(C(C[N+](=O)[O-])c2c(-c3ccccc3)cc3ccccn23)cc1OC (configuration not stated) |  | inactive: 6.19%
COc1cc(Nc2nc3c(N)cc(C(F)(F)F)cc3nc2-c2ccccc2)cc(OC)c1OC | inconclusive [inhibitor, full curve, poor fit] | 
CCCN1C(=O)C(O)(CC(=O)c2ccc(CC)cc2)c2cc(Br)ccc21 (configuration not stated) | inconclusive [inhibitor, partial curve, poor fit] | 
O=C(NC(=S)Nc1cc(C(F)(F)F)ccc1N1CCOCC1)c1ccco1 | inconclusive [inhibitor, single point] | 
CCn1nnc(NC(=S)NC(=O)c2ccc(-c3cccc(Cl)c3)o2)n1 |  | inactive: -22.3%
COc1ccccc1-c1sc2ccccc2c1-c1ccc2c(c1)OCO2 | active: 10 µM | 
CC(C)C(=O)NC(C)C(c1cccs1)N1CCN(c2ccccc2)CC1 (configuration not stated) | inconclusive [inhibitor, single point] | 
COc1ccccc1-c1c(C)nn2c(-c3ccccc3)cc(C)nc12 | inconclusive [inhibitor, partial curve, poor fit] | 
O=C(CSc1nnnn1-c1ccccc1)Nc1ccccc1 |  | inactive: -7.55%
O=C(NCC(c1ccco1)N1CCCCC1)c1cccc(NS(=O)(=O)c2ccc(Br)cc2)c1 (configuration not stated) | inconclusive [inhibitor, single point] | 
CN1CCN(C(=O)CCc2nc(-c3ccc(Cl)cc3)no2)CC1 | inconclusive [inhibitor, single point] | 
Cc1sc(NC(=O)CN2CCCC2)nc1-c1ccc2c(c1)CCN2C(=O)c1cccc(F)c1 | inconclusive [inhibitor, partial curve, poor fit] | 
Cc1cccc(N2CCN(C(=O)c3cc4c(=O)n(C)c5ccccc5c4n3C)CC2C)c1 (configuration not stated) | inconclusive [inhibitor, single point] | 
O=C(Oc1ccccc1C(=O)Nc1ccccc1)c1ccccc1Br | inconclusive [inhibitor, partial curve, poor fit] | 
O=[N+]([O-])c1ccc2nc(/C=C/c3ccc(Cl)cc3)[nH]c2c1 | inconclusive [inhibitor, single point] | 
CCOc1ccccc1NC(=O)CN1C(=O)COc2ccc(S(=O)(=O)N3CCCCCC3)cc21 |  | inactive: 2.43%
